Measurements from publication PMC10668032.
Some of the results follow. At the low end of the ranking the order means little.

Target: SIX1-Q177R homeodomain (UniProt Q15475)
Test: universal protein binding microarray
Conditions: Universal all-10-mer PBM (8x60K, AMADID 030236), 300 nM GST-tagged protein, Alexa Fluor 488 anti-GST; buffer, salt, pH and temperature not stated; high values mean tight binding; most listed sequences are background and not binding sites; double strand, one strand shown

Sequence | binding signal [E-score]
AAAGCTAT | -0.287
AAAATGAG | -0.194
AACATCTG | -0.275
AGTATACG | -0.178
GTATGATA | 0.18
AGTCAGAA | -0.144
CACCCAAG | 0.366
AACTAGGA | 0.027
CGAGCATA | -0.09
ACGCACAA | -0.126
CGTGAGGC | -0.165
CAGAGCGC | -0.141
GGCTTTAC | -0.225
ATTGCTGG | -0.128
ACCGGATC | 0.189
CGCCGCAG | -0.0529
CATAGCGA | -0.1
GACGTCTA | -0.0244
GATGTAGC | -0.081
CCACGGCG | -0.0684
ATTTAGAA | -0.188
CCGCATCC | -0.123
GTGACCTA | -0.123
CCATAAAG | -0.232
CGTGAGGA | -0.152

Sequence | binding signal [E-score]
CGAGTTTC | -0.152
GATTACCC | 0.175
ACGAGGGA | 0.0826
AGGTCTAG | -0.117
AGCAGGAT | -0.0422
CAGACGCG | 0.00919
AACTTAGA | 0.0858
ATATCCCG | -0.0456
GTGTATAA | 0.376
GTTGCGGA | -0.0246
CCCGTCGC | 0.0281
AACATTAG | -0.0907
CTTGTTCA | 0.106
ATTAGACC | -0.0798
CCTCGGGA | 0.136
AAGCAGAT | -0.209
CCTGAGAG | 0.0315
AACCGCTT | -0.184
AAATTGTC | -0.0336
CCGTCTAC | -0.0352
GGTTAACC | -0.0673
GATCCAAC | 0.00762
CTCGGGGA | 0.142
CGAGCCGA | -0.0446
ACTTCGGC | -0.0587

Sequence | binding signal [E-score]
GGGCTGGA | -0.0304
ACGTAGAA | 0.0148
CGCGTTCC | 0.118
ATACGATG | -0.134
GTCATGTA | 0.00121
AGAGGCAT | -0.118
GCGTGCAA | 0.0566
AAAGGGAT | -0.0036
CAGGACCA | -0.155
ATAATCAT | -0.0843
AGTAAGGA | -0.118
CAAGTAAC | -0.139
CGCTCAAG | -0.106
ACAGACAT | -0.333
CTGTCGCC | -0.206
ACGCCGCG | 0.1
CATGGGCA | -0.0644
ACGAGCCG | -0.0193
AAATAATC | -0.196
ATGGCGTA | 0.0414
AAGGGCCA | -0.15
CTGGACAA | -0.193
ATACTTTC | -0.069
CCAGGTTC | 0.00292
GGCCACAC | 0.233

Sequence | binding signal [E-score]
AAAGCAAG | -0.234
CAAGCCCA | 0.0921
TGAAATAA | -0.0774
AAACACTG | 0.344
ATCTATTA | -0.0806
AACGGAGG | -0.00318
AGTCACAG | -0.00583
ATGAGCCC | 0.00462
GGGAAGGA | -0.0961
ACTTTGGG | -0.0092
AGGCGGTC | -0.0695
GCGACCAC | -0.21
CCCGTTTA | 0.0712
CTACAAAG | -0.0566
ACTTATCG | -0.00777
ACTCCCCG | 0.191
TATTGACA | 0.194
AGCAGTGG | -0.176
ACATCCTG | -0.166
TAGTAGAA | -0.0581
GGGCCCAC | -0.166
ATGCGGGG | -0.106
CATCGGGA | 0.0149
AGCCGCTG | -0.267
ATTGTAGG | 0.0645

Sequence | binding signal [E-score]
AAGGTCAA | -0.205
CCGCCAAC | -0.0039
CTCAGTCC | -0.224
ACCCAAAT | 0.0109
TCATCCGA | -0.0314
CCGCTTAG | -0.199
CAACTACC | 0.0976
GCGTACCA | -0.0251
CACGGTAA | 0.126
CTACCAAA | -0.0864
TATCCGGA | 0.0271
CGTTTAAG | -0.137
CATAGTGG | 0.0376
CAAGCTCA | -0.133
ATCTCGAA | -0.0877
CGTAAGGA | -0.0566
TATTATGA | -0.118
AGATGAAA | 0.0637
GCCCCTAC | 0.126
AGCGCTAG | -0.105
CTGGATTA | -0.0308
ATAATTGC | -0.258
GATGAAGA | -0.155
CGGGCGTC | 0.113
CATTGGCA | -0.0295

Sequence | binding signal [E-score]
CTATGTGC | 0.039
GACAAGCA | -0.131
CTTCCTGC | -0.179
AGGGAAAT | -0.18
ACCATTGA | 0.107
CTCGGATA | 0.188
TCCGTAAA | -0.0461
ACACACGC | 0.267
GATATGGA | -0.027
ATGTCGTC | -0.195
CTCTTCCA | 0.0295
AACATGCA | -0.0914
TGCGATAA | -0.08
CTTACTTA | 0.0909
CTTTATTA | -0.0483
CTATCTCA | 0.00567
ACGTTACA | 0.0994
CACTCAAA | -0.0269
CAACGACA | 0.197
AAATCAAT | -0.326
ATATTAAG | -0.0737
ACCTAGTA | 0.0107
CCAACGGA | -0.00157
CCAGTGCG | -0.087
AAGGGTAC | 0.133

Sequence | binding signal [E-score]
GGGGCACA | 0.146
GAGGTACC | -0.0384
CGAGTAGA | -0.0697
GCAGCAGC | 0.0239
AGCGGCAC | 0.0152
ATATCGAG | -0.0678
ATCCACAT | -0.0528
ATGGGCCG | -0.0525
CGTAATTC | 0.0179
ACTCATAT | -0.075
CTCATGAA | -0.248
ATTCTGGA | -0.164
AAAAACTA | -0.197
ATTGGCAG | -0.0192
CGCAGCGA | -0.0359
AGAGCGTA | -0.115
GAGCGTGC | 0.0379
GTGTCCTA | 0.4
TACGAGAA | -0.239
ACCCGAGA | 0.175
ACACTGAG | 0.354
GTGGGGCA | -0.00287
